Measurements reported in PMC4336329 (PLoS ONE, 2015).
Screen size: about 310,000 compounds; about 14,000 (4.5%) showed an effect of 50% or more. The effect is printed as a negative number. Some of the results follow.

target: human ether-à-go-go-related gene (hERG) potassium channel (human, UniProt Q12809); experiment: primary screen, population patch clamp on CHO cells stably expressing hERG
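Note: peak tail current of the secondary pulse compared with the same well before compound.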

human ether-à-go-go-related gene (hERG) potassium channel, sequence (Q12809 whole entry, looked up): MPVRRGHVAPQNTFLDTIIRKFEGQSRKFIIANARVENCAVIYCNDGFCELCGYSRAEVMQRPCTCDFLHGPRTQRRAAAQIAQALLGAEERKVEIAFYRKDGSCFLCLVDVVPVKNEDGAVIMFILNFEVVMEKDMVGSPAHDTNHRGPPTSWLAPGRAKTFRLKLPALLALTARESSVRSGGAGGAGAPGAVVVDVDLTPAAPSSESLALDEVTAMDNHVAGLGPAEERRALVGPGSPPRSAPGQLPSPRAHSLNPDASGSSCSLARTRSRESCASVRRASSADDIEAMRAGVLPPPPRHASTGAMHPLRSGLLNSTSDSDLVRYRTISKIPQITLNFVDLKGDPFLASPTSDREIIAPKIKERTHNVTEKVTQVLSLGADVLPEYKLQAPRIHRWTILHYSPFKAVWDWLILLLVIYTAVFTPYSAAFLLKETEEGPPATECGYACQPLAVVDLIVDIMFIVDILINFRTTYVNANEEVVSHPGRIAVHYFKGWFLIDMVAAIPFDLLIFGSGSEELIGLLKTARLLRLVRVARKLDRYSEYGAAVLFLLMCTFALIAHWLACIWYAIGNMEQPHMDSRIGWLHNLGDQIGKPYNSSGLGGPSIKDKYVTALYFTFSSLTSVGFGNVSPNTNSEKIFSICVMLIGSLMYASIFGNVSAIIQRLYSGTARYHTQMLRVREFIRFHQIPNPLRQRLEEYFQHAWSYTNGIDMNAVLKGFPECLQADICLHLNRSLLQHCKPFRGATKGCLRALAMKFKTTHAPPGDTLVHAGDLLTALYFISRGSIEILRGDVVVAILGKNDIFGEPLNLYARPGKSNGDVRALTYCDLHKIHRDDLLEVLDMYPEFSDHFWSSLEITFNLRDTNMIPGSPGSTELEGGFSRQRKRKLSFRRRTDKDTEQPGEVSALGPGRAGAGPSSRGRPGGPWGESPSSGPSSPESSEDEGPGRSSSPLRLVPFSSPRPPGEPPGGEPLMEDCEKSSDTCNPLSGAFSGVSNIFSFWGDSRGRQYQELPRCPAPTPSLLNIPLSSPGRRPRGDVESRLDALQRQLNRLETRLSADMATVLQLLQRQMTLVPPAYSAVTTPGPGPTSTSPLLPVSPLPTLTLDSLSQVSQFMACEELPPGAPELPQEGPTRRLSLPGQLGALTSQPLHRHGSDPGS

**Q.** `C=C(C)CN=C1SC(C(=O)Nc2sc3c(c2C(=O)OC)CCC3)C(N)=C1C(N)=O` (stereo not drawn) was tested. Which “hERG current change (%, negative = inhibition) at 10uM” value did it give?
**A.** Its value is 10.3%.

**Q.** Which “hERG current change (%, negative = inhibition) at 10uM” value does the source give for `O=C(COc1ccc2ccccc2c1)N1CCNCC1.O=C(O)C(F)(F)F` here?
**A.** Its value is 1.37%.

**Q.** Which “hERG current change (%, negative = inhibition) at 10uM” value does the source give for `O=C(CSc1ccc2nnc(-c3cccnc3)n2n1)c1ccccc1` here?
**A.** The value was -70%.

**Q.** For `CN(C/C(O)=C(\C#N)c1ccccc1)C1CCCCC1`, which “hERG current change (%, negative = inhibition) at 10uM” value is on record?
**A.** Its value is -0.409%.

**Q.** Which “hERG current change (%, negative = inhibition) at 10uM” value does the source give for `CNC(=O)c1ccccc1F` here?
**A.** The value was 9.08%.

**Q.** How did the “hERG current change (%, negative = inhibition) at 10uM” value turn out when `CCC(=O)Nc1ccccc1C(=O)N1CCN(Cc2ccccc2)CC1` was run?
**A.** Its value is -1.1%.

**Q.** Which “hERG current change (%, negative = inhibition) at 10uM” value does the source give for `Cc1ccc(NC(=O)/C(C#N)=C/c2ccc(Sc3nc(C)cc(C)n3)o2)cc1` here?
**A.** The value was 17.3%.

**Q.** `CCCCC(=O)NC(c1ccccc1Cl)c1c(O)ccc2ccccc12` (stereo not drawn) was tested. Which “hERG current change (%, negative = inhibition) at 10uM” value did it give?
**A.** Its value is 1.58%.

**Q.** `CCn1c2ccccc2c2cc(NC(=O)COC(=O)c3cc(OC)c(OC)cc3OC)ccc21` was tested. Which “hERG current change (%, negative = inhibition) at 10uM” value did it give?
**A.** Its value is -3.41%.

**Q.** With `O=C(O)C1CCCN1c1ncccn1` (stereo not drawn) as the compound, how does the “hERG current change (%, negative = inhibition) at 10uM” value read?
**A.** The value was 0.459%.

**Q.** How did the “hERG current change (%, negative = inhibition) at 10uM” value turn out when `COc1ccc(NC(=O)c2cc(-c3ccccc3Cl)no2)cc1` was run?
**A.** Its value is 3.62%.

**Q.** Which “hERG current change (%, negative = inhibition) at 10uM” value does the source give for `COc1ccc(NC(=O)/C(N=Nc2cc(S(=O)(=O)Nc3ccc(OC)cc3)ccc2OC)=C(\C)O)cc1` here?
**A.** The value was 24.2%.

**Q.** `COC(=O)c1ccc(NS(=O)(=O)c2cc3c4c(c2)CCC(=O)N4CCC3)cc1` was tested. Which “hERG current change (%, negative = inhibition) at 10uM” value did it give?
**A.** The value was -9.1%.

**Q.** `Cc1ccc(C(=O)Nc2ccc(S(=O)(=O)N3CCCC3)cc2)cc1` was tested. Which “hERG current change (%, negative = inhibition) at 10uM” value did it give?
**A.** Its value is 15.2%.

**Q.** Which “hERG current change (%, negative = inhibition) at 10uM” value does the source give for `C=C(C)CC1N(c2cccc(OC)c2)C(=O)C2C(C(=O)O)C3C=CC21O3` (stereo not drawn) here?
**A.** Its value is 3.93%.

**Q.** Which “hERG current change (%, negative = inhibition) at 10uM” value does the source give for `CCOC(=O)Cc1csc(NS(=O)(=O)c2ccc3c4c(cccc24)C(=O)N3CC)n1` here?
**A.** Its value is 18.4%.

**Q.** Which “hERG current change (%, negative = inhibition) at 10uM” value does the source give for `COCCCNC(=O)c1ccc(-c2csc(C)n2)cc1` here?
**A.** The value was 4.49%.

**Q.** With `Cc1ccsc1/C=C1\SC(N2CCOCC2)=NC1=O` as the compound, how does the “hERG current change (%, negative = inhibition) at 10uM” value read?
**A.** Its value is -11.9%.

**Q.** How did the “hERG current change (%, negative = inhibition) at 10uM” value turn out when `COc1cccc(CCNC(=O)C2CCCN(c3ncnc4c3nc3n4CCCCC3)C2)c1OC` (stereo not drawn) was run?
**A.** Its value is -74.7%.

**Q.** How did the “hERG current change (%, negative = inhibition) at 10uM” value turn out when `CC(=O)Nc1cccc(NC(=O)c2cccc3cccnc23)c1` was run?
**A.** Its value is 9.96%.

**Q.** For `CCCCN(C(=O)COc1ccc(C)cc1OC)c1c(N)n(CCC)c(=O)[nH]c1=O`, which “hERG current change (%, negative = inhibition) at 10uM” value is on record?
**A.** Its value is 4.7%.

**Q.** With `O=C(NCCN1C(=O)S/C(=C\c2cccnc2)C1=O)c1ccc([N+](=O)[O-])s1` as the compound, how does the “hERG current change (%, negative = inhibition) at 10uM” value read?
**A.** Its value is 5.15%.

**Q.** How did the “hERG current change (%, negative = inhibition) at 10uM” value turn out when `CCCCCCn1nc(C(=O)N(CCOC)c2c(N)n(CCCC)c(=O)[nH]c2=O)c2ccccc2c1=O` was run?
**A.** Its value is -1.87%.

**Q.** Which “hERG current change (%, negative = inhibition) at 10uM” value does the source give for `COC(=O)c1sccc1NC(=S)Nc1ccc(C)cc1` here?
**A.** The value was 13.7%.

**Q.** `Cc1ccccc1Cc1ccc(Cl)nn1` was tested. Which “hERG current change (%, negative = inhibition) at 10uM” value did it give?
**A.** Its value is 19.4%.

**Q.** With `Cc1cc(-c2ccccc2)nc2[nH]n(-c3ccccc3)c(=O)c12` as the compound, how does the “hERG current change (%, negative = inhibition) at 10uM” value read?
**A.** The value was -7.85%.

**Q.** Which “hERG current change (%, negative = inhibition) at 10uM” value does the source give for `O=C(CCc1nnc(C2CCCCC2)o1)NCc1ccc(F)c(F)c1` here?
**A.** Its value is -8.01%.

**Q.** `COc1ccc(-c2cn3cccnc3n2)cc1` was tested. Which “hERG current change (%, negative = inhibition) at 10uM” value did it give?
**A.** The value was 18.8%.

**Q.** How did the “hERG current change (%, negative = inhibition) at 10uM” value turn out when `NC(=O)COC(=O)c1cc(Cl)cc(Cl)c1N` was run?
**A.** The value was 3.12%.

**Q.** How did the “hERG current change (%, negative = inhibition) at 10uM” value turn out when `CCCCc1nc2cc(C(=O)N3CCCCC3CCNC(C)=O)ccc2o1` (stereo not drawn) was run?
**A.** The value was 1.22%.

**Q.** For `O=C(Nc1ccccn1)c1cc(-c2ccc(Cl)s2)nc2ccccc12`, which “hERG current change (%, negative = inhibition) at 10uM” value is on record?
**A.** Its value is -7.05%.

**Q.** `Cc1onc(C(=O)NN)c1C(=O)Nc1ncc(C(F)(F)F)cc1Cl` was tested. Which “hERG current change (%, negative = inhibition) at 10uM” value did it give?
**A.** Its value is 12.6%.

**Q.** How did the “hERG current change (%, negative = inhibition) at 10uM” value turn out when `CC12COC3(C(=O)Nc4ccc(Cl)cc4)CC1CCC32C` (stereo not drawn) was run?
**A.** Its value is -37.8%.

**Q.** For `CC(=O)c1ccc(N2CCN(c3ccc(C(F)(F)F)cn3)CC2)cc1`, which “hERG current change (%, negative = inhibition) at 10uM” value is on record?
**A.** Its value is -12%.

**Q.** Which “hERG current change (%, negative = inhibition) at 10uM” value does the source give for `CCNC(=S)NNC(=O)CCc1nc2cc(Cl)ccc2n(Cc2ccccc2)c1=O` here?
**A.** Its value is -54.7%.

**Q.** For `Cn1c(CN2CCCCC2)nc2cc(NS(=O)(=O)c3ccc(F)cc3)ccc21`, which “hERG current change (%, negative = inhibition) at 10uM” value is on record?
**A.** The value was -54.2%.

**Q.** `Cc1cc(=O)n(C)c2ccc(S(=O)(=O)N3CCOCC3)cc12` was tested. Which “hERG current change (%, negative = inhibition) at 10uM” value did it give?
**A.** Its value is 9.27%.

**Q.** `CC1CCCCN1CCCNC(=O)c1ccc(NC(=O)C2=CSCCO2)cc1` (stereo not drawn) was tested. Which “hERG current change (%, negative = inhibition) at 10uM” value did it give?
**A.** Its value is 5.4%.

**Q.** For `CC(C)(C)c1nc(SCC(=O)c2ccccc2)c2ccccc2n1`, which “hERG current change (%, negative = inhibition) at 10uM” value is on record?
**A.** The value was 14.3%.

**Q.** How did the “hERG current change (%, negative = inhibition) at 10uM” value turn out when `Cc1ccc(C(=O)C(C)OC(=O)Cc2c[nH]c3ccccc23)cc1` (stereo not drawn) was run?
**A.** The value was 1.64%.

**Q.** Which “hERG current change (%, negative = inhibition) at 10uM” value does the source give for `CCN(CC(=O)Nc1c(F)cccc1F)C(=O)c1ccc(S(=O)(=O)N2CCCC2)cc1` here?
**A.** The value was -4.87%.

**Q.** With `CC[n+]1ccc2cc(OC)c(OC)cc2c1Cc1ccc(OC)c(OC)c1.[I-]` as the compound, how does the “hERG current change (%, negative = inhibition) at 10uM” value read?
**A.** Its value is 8.82%.

**Q.** Which “hERG current change (%, negative = inhibition) at 10uM” value does the source give for `COc1ccc(-n2c(CCC(=O)O)ccc2-c2ccccc2)cc1` here?
**A.** The value was -1.38%.

**Q.** For `O=C(COC(=O)c1ccc(O)cc1)NC1CCCC1`, which “hERG current change (%, negative = inhibition) at 10uM” value is on record?
**A.** Its value is 14%.

**Q.** With `O=C(O)CCCNC(=O)C(c1ccccc1)c1ccccc1` as the compound, how does the “hERG current change (%, negative = inhibition) at 10uM” value read?
**A.** Its value is 6.52%.

**Q.** With `Cc1ccc(NC(=O)c2ccc(Cn3cc([N+](=O)[O-])cn3)cc2)c(C)c1` as the compound, how does the “hERG current change (%, negative = inhibition) at 10uM” value read?
**A.** Its value is -16.9%.

**Q.** How did the “hERG current change (%, negative = inhibition) at 10uM” value turn out when `O=C1NC2(CCCCCC2)C(=O)N1Cc1ccc(F)cc1Cl` was run?
**A.** Its value is -25.5%.

**Q.** With `CCOC(=O)CSc1nnc(CNc2ccc(Cl)cc2)n1Cc1ccccc1` as the compound, how does the “hERG current change (%, negative = inhibition) at 10uM” value read?
**A.** Its value is -21.8%.

**Q.** For `COc1ccc(/C=C/C(=O)NC(=S)NNC(=O)c2cccs2)cc1OC`, which “hERG current change (%, negative = inhibition) at 10uM” value is on record?
**A.** The value was 16.1%.

**Q.** Which “hERG current change (%, negative = inhibition) at 10uM” value does the source give for `COc1ccc(CN2CCC(C(N)=O)CC2)cc1OCc1ccccc1.O=C(O)C(=O)O` here?
**A.** The value was -19.1%.

**Q.** Which “hERG current change (%, negative = inhibition) at 10uM” value does the source give for `COc1ccccc1N1CC(C)C(=O)NC1=S` (stereo not drawn) here?
**A.** Its value is 9.86%.

**Q.** How did the “hERG current change (%, negative = inhibition) at 10uM” value turn out when `Cc1ccc(S(=O)(=O)N2CCCCC2CCNC(=O)C(=O)NCc2ccccc2C)cc1` (stereo not drawn) was run?
**A.** Its value is -0.496%.

**Q.** With `Cc1cccc(NC(=O)CSc2nc3ccccc3c(=O)n2C)c1` as the compound, how does the “hERG current change (%, negative = inhibition) at 10uM” value read?
**A.** The value was 3.05%.

**Q.** How did the “hERG current change (%, negative = inhibition) at 10uM” value turn out when `CCCOc1cccc(C(=O)NC(=S)Nc2ccc(N3CCN(C)CC3)cc2)c1` was run?
**A.** Its value is 1.67%.

**Q.** `CC1CCN(C(=O)CSc2nc3cccnc3n2C)CC1` was tested. Which “hERG current change (%, negative = inhibition) at 10uM” value did it give?
**A.** The value was 2.66%.

**Q.** Which “hERG current change (%, negative = inhibition) at 10uM” value does the source give for `COc1ccc(Nc2nc(N3CCCC3)nc3ccccc23)c(OC)c1` here?
**A.** The value was -44.6%.

**Q.** With `Cc1c(C(=O)N2CCc3ccccc32)oc2ccccc12` as the compound, how does the “hERG current change (%, negative = inhibition) at 10uM” value read?
**A.** The value was 6.24%.
